Publication PMC4336329 (PLoS ONE, 2015)
Hit rate of the full screen: of about 310,000 compounds, about 14,000 (4.5%) showed an effect of 50% or more. The effect is printed as a negative number. This is one part of the list.

The compounds below were run against human ether-à-go-go-related gene (hERG) potassium channel (human, UniProt Q12809) (assay: primary screen, population patch clamp on CHO cells stably expressing hERG).
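Note: peak tail current of the secondary pulse compared with the same well before compound.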

Chain of human ether-à-go-go-related gene (hERG) potassium channel (Q12809 whole entry, looked up): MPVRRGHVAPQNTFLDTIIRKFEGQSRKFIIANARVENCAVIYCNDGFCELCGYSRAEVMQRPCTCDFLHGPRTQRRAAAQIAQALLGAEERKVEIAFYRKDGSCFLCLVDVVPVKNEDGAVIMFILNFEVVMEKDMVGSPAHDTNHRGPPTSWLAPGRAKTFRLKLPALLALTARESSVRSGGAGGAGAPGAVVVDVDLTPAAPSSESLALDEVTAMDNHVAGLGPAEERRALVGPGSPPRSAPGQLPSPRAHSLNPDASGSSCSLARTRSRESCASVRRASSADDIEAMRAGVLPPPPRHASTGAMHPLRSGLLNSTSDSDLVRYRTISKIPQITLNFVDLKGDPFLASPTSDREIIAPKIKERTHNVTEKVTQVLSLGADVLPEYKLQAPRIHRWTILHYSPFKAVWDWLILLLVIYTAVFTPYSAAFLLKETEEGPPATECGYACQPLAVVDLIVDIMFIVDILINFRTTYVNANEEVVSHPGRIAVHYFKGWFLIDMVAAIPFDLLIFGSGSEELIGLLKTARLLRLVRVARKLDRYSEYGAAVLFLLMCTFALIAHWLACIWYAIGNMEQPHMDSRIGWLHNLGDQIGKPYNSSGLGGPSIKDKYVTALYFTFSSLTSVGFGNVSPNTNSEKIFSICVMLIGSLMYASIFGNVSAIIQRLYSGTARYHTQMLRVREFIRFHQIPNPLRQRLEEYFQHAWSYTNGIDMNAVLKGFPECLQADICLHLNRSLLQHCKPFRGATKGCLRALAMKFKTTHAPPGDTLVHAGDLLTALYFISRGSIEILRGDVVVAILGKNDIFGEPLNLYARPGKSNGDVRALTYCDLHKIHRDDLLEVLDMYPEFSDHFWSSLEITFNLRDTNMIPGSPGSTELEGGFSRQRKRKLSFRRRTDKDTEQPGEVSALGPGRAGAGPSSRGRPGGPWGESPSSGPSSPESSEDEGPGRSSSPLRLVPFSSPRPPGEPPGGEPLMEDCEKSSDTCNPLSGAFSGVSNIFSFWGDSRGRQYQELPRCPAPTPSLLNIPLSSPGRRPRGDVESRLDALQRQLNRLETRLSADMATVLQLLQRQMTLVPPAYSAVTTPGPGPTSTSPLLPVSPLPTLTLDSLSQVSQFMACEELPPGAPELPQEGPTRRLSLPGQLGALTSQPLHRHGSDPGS

Structure (SMILES) | hERG current change (%, negative = inhibition) at 10uM [%]
Cc1ccc(NS(=O)(=O)c2c(C)[nH]c(C)c2C(=O)N2CCCCC2)c(Br)c1 | -11.9
CC(=O)c1ccccc1NC(=O)CC1(CC(=O)O)CCCCC1 | 31
O=C(NCc1ccccc1)c1cc(S(=O)(=O)N2CCC3(CC2)OCCO3)ccc1F | -6.48
Cn1c(=O)n(CC(=O)O)c(=O)c2c1nc1n2CCCN1Cc1ccccc1 | 17.4
COC(=O)C1=C(C)N(Cc2ccco2)C(=O)N[C@@H]1c1ccco1 | 5.27
CCOC(=O)c1ccc(-c2ccc(/C=N/NC(=O)Cc3nnc(N)s3)o2)cc1 | 13.6
CNCCCOc1ccc(Cl)cc1C(C)(C)C.O=C(O)C(=O)O | -20.6
Cc1ccc(S(=O)(=O)NCCNC(=O)c2ccc(C)nc2)cc1 | -72
COc1ccc(/C=C(/NC(=O)/C=C/c2ccccc2)C(=O)NCCCCCC(=O)O)cc1 | 13.1
COCCNC(=O)C(OC(=O)c1cc2oc(C)cc2n1C)C(C)C (centres unmarked) | -2
Cc1ccc(Cn2ccc(=O)c(OCc3ccccc3)c2C)cc1 | -5.93
CC(NC(=O)C(=O)N1CCOCC1)C(c1cccs1)N1CCN(c2ccccc2)CC1 (centres unmarked) | 8.31
CNc1nc(N)c([N+](=O)[O-])c(NC2CCCCC2)n1 | 12
CC12CC3CC(C)(C1)CC(C(=O)N1CCCC1)(C3)C2 | -8.94
CCOc1ccc(OCCC(=O)OCC(=O)NC2CC2)cc1 | 2.33
CCOC(=O)c1cnn(-c2ccccc2)c1-c1ccncc1 | 12.3
CCc1ccc(C(=O)COC(=O)c2cccc(N3C(=O)c4c(C)nc5ccccc5c4C3=O)c2)cc1 | -27.9
COc1ccccc1/C=N/NC(=O)CNC(=O)c1ccc(S(=O)(=O)N2CCCC2)cc1 | 4.9
Cc1cc(N2CCc3ccccc32)n2ncnc2n1 | -0.558
CC1=CS/C(=C(/C#N)C(=O)N2CCCCC2)N1c1ccccc1 | 8.52
CCC1=[N+](C)c2cccc3cccc(c23)N1C.[I-] | 18.6
COc1ccc(CN(Cc2ccc(C(=O)O)cc2)C(=S)Nc2ccccc2C)cc1OC | 24.9
Cc1cc2ccccc2cc(C)c1=O | 7.96

Structure (SMILES) | hERG current change (%, negative = inhibition) at 10uM [%]
CC(C)OCCCN(C)C1CCN(S(=O)(=O)c2csc(C(N)=O)c2)CC1 | 13.1
CC(OC(=O)c1ccccc1Nc1ccc(SC(F)F)cc1)C(N)=O (centres unmarked) | -34
CCOC(=O)c1c(/N=C/N(C)C)sc(C=O)c1-c1ccccc1 | 5.75
CCCS(=O)(=O)Nc1c(C(=O)O)[nH]c2ccc(OC)cc12 | 1.44
O=C(Nc1ccc(Cl)cc1)C1CC2CCCC(C1)C2=O (centres unmarked) | -15.6
Cc1cccc(C)c1NC(=S)NN(Cc1ccccc1)c1ccccc1 | 11.6
CC1CCCCN1C(=O)CSc1nc(C2CC2)nc2c1cnn2-c1ccccc1 (centres unmarked) | 16.9
CCc1ccc(OCC(=O)Nc2ccc3[nH]ncc3c2)cc1 | -7.38
CC1(C)CC(=O)N(CC(=O)N2CCN(c3ncccn3)CC2)c2ccccc2S1(=O)=O | -5.14
CSc1nnc(C)c(=O)n1COC(=O)COc1ccccc1C | -2.1
C=COCCn1c(C)c(C(C)=O)c2cc(O)ccc21 | 7.27
C/C(=N\Nc1ccc2nncn2n1)c1ccc(Br)s1 | 6.83
Cc1ccc(NNC(=O)c2c(F)cccc2Cl)cc1C | 4.71
C[C@H](NC(=O)OC(C)(C)C)C(=O)N/N=C/c1cccc2nccnc12 | 8.37
Oc1ccc(N=Nc2ccc3c(c2)OCO3)c2ccccc12 | -6.41
CC(=O)c1ccc2noc(-c3ccc(F)cc3)c2c1 | 2.15
CCOc1ccc(NS(=O)(=O)c2ccc(-c3coc(C)n3)cc2)cc1 | 24.3
Cc1ccc(Oc2ccc(OCC(=O)NC(C)C(=O)O)cc2)cc1 (centres unmarked) | -25.1
NS(=O)(=O)c1ccc(NC(CNS(=O)(=O)c2ccccc2)c2ccccc2)cc1 (centres unmarked) | 36.8
Cc1nn(Cc2cccc(C(=O)NC34CC5CC(CC(C5)C3)C4)c2)c(C)c1Br | 5.43
CN(c1ccc(C(=O)N2CCOCC2)cc1)S(=O)(=O)c1cccs1 | 29
CC1(C)Cc2c(sc(NC(=O)C(=O)N3CCCCC3)c2C(N)=O)CO1 | 18.3
O=C(CN1C(=O)NC2(CCCCCC2)C1=O)Nc1ccc2c(c1)CCC2 | -5.72

Structure (SMILES) | hERG current change (%, negative = inhibition) at 10uM [%]
O=[N+]([O-])c1cccc(NC2=NCCC2)c1 | 2.79
Cc1cc(S(=O)(=O)NCCc2ccccc2)c(C)s1 | -17.4
NC(=O)C(C(=O)/C=C/c1ccc(Cl)cc1)=C1SCCS1 | 0.52
O=c1[nH]c(=O)c2ncc(-c3ccc(Cl)cc3)nc2[nH]1 | 6.87
CCC(C)Oc1cccc(C(=O)Nc2ccccc2N2CCOCC2)c1 (centres unmarked) | -4.01
Cc1ccc(C(=O)N2CC(C)OC(C)C2)cc1[N+](=O)[O-] (centres unmarked) | 7.89
CCCN(CCC)S(=O)(=O)c1cc2c3c(c1)CCN3C(=O)CC2 | -26.6
COc1ccc(CCNC(=S)Nc2cccc(C)c2)cc1 | -8.64
O=C(COC(=O)c1ccc(Cl)s1)c1cc2ccccc2o1 | -18.4
Cc1ccc2oc(=O)c(/C=C(\O)c3ccccc3)nc2c1 | -5.21
CC(CCN1CCC(n2nccc2NC(=O)c2ccccc2Cl)CC1)c1ccccc1 (centres unmarked) | -82.7
COc1cc2[nH]c(C(=O)N3CCc4ccccc4C3)cc2c(OC)c1OC | -21.4
Nc1nonc1N/N=C/c1c(O)ccc2ccccc12 | 21.3
O=S(=O)(NCc1ccc2c(c1)OCO2)c1ccc2c(c1)oc1ccccc12 | 11.2
COc1ccc(-n2c(C)nnc2SCC(=O)N2CCOCC2)cc1 | 13.7
O=C(OCC(=O)N1CCN(C(=O)c2ccco2)CC1)c1cc(-c2ccccc2)nc2ccccc12 | -60.3
O=C(NC1CCCCC1)N1CCCC(c2nc(-c3cccs3)no2)C1 (centres unmarked) | -10.5
COc1ccc(-n2cc(CN[C@H]3CCCCNC3=O)c(-c3cccc(F)c3)n2)cc1 | -64.1
CSc1nnc(-c2cccn(Cc3cccc(Cl)c3)c2=O)o1 | -11.2
Cc1ccc(Cl)cc1N1CCN(C(=O)c2ccc(CS(=O)Cc3ccc(Cl)cc3)o2)CC1 (centres unmarked) | 13.9
COc1ccccc1-c1c(C)nn2c(N)c(-c3ccc(Cl)cc3)cnc12 | 27
COc1ccc(COC(=O)CCS(=O)(=O)c2ccc(C)cc2)cc1 | 12.6
CCN1CCN(C(C(=O)NC2CCCCC2)c2ccc(Cl)cc2)CC1 (centres unmarked) | -21.7

Structure (SMILES) | hERG current change (%, negative = inhibition) at 10uM [%]
COc1ccccc1NC(=O)CN1CCN(CC(=O)Nc2ccc(C)c(F)c2)CC1 | -70
CN(C)C(=S)SCCn1c(N)nc(N(C)C)nc1=O | 12.2
C/C(=N\NS(=O)(=O)c1ccc(C)cc1)c1ccc(Br)s1 | 9.9
Cc1ccc(S(=O)(=O)Nc2ccc3[nH]c(=O)[nH]c3c2)c(C)c1 | 7.85
COc1cc2ccc(=O)oc2c(CC=C(C)C)c1OC | -2.74
O=C(NC1CCCCNC1=O)c1ccco1 (centres unmarked) | 26.8
Cc1ccc2[nH]cc(CCNC(=O)c3ccc([N+](=O)[O-])cc3)c2c1 | -1.88
O=C(Nc1ccc(C(F)(F)F)cc1)c1ccccc1Br | 7.52
CCN(CC)S(=O)(=O)c1ccc2c(c1)N(CC(=O)Nc1cccnc1Cl)C(=O)CO2 | -8.43
Cc1ccc(C)c(Nc2ncccc2C(=O)NCc2cccs2)c1 | -1.16
O=C1NN=C(CSc2n[nH]c(=S)s2)CS1 | 22.2
CN(c1ccccc1C(=O)Nc1ccc2ccccc2c1)S(C)(=O)=O | -22.6
CN(C)CCCNC(=O)CC(c1ccccc1)c1ccccc1O (centres unmarked) | -13.2
CC1CC(C)CN(S(=O)(=O)c2ccc(C(=O)N(c3ccccn3)C3CCCCC3)cc2)C1 (centres unmarked) | -19.2
CCOC(=O)C1CCN(C(=O)c2ccc3c(=O)n4nc(Nc5cc(C)ccc5C)sc4nc3c2)CC1 | -4.55
CCc1ccccc1NC(=O)Cn1nnc(C(=O)NCc2cccs2)c1N | 13.8
COC(=O)[C@@]1(Cc2ccc(F)cc2)[C@H]2c3cc(C(=O)N(C)C)n(CCc4ccc(OC)c(Br)c4)c3C[C@H]2CN1C(=O)c1ccccc1 | -2.99
CC(=O)N/C(=C\c1ccccc1)C(=O)OCc1ccc(C)cc1 | -19.9
O=C(c1ccccc1F)c1cn(CC(=O)N2CCOCC2)c2ccccc12 | -1.82
Cc1cc(C)c(S(=O)(=O)NCc2ccc3c(c2)cc(C)n3C)c(C)c1 | 6.48
